# Results as given in the supplement of paper PMC8728848.
# The other results are listed elsewhere or left out.
# Assays:
# Assay in all cases: glycan array binding signal (z-score within array); higher = stronger binding
# Conditions in all cases: glycan notation: IUPAC condensed, linker removed
# [1] = target: Fuc(a1-3)[Gal(b1-4)]GlcNAc
# Summary of the method: (§1)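 The binding signal is a Z-score computed within each array. Data were drawn from 3228 arrays in the Consortium for Functional Glycomics database, restricted to those with a known protein sequence. Scores were averaged over arrays of the same protein sequence at different concentrations or buffers, and over linkers, and negative values can be taken as non-binding.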
# [2] = target: Fuc(a1-3)[Gal(b1-4)]GlcNAc(b1-4)Gal(b1-4)[Fuc(a1-3)]GlcNAc
# Summary of the method: as §1
# [3] = target: Fuc(a1-3)[Gal(b1-4)]GlcNAc(b1-4)Gal(b1-4)[Fuc(a1-3)]GlcNAc(b1-4)Gal(b1-4)[Fuc(a1-3)]GlcNAc
# Summary of the method: as §1
# [4] = target: Fuc(a1-3)[Gal3S(b1-4)]GlcNAc
# Summary of the method: as §1
# [5] = target: Fuc(a1-3)[GalNAc(b1-4)]GlcNAc
# Summary of the method: as §1
# [6] = target: Fuc(a1-4)GlcNAc
# Summary of the method: as §1
# [7] = target: Fuc(b1-3)GlcNAc
# Summary of the method: as §1
# [8] = target: Gal(a1-2)Gal
# Summary of the method: as §1
# [9] = target: Gal(a1-3)Gal
# Summary of the method: as §1
# [10] = target: Gal(a1-3)Gal(b1-3)GlcNAc
# Summary of the method: as §1
# [11] = target: Gal(a1-3)Gal(b1-4)Glc
# Summary of the method: as §1
# [12] = target: Gal(a1-3)Gal(b1-4)GlcNAc
# Summary of the method: as §1
# [13] = target: Gal(a1-3)Gal(b1-4)[Fuc(a1-3)]GlcNAc
# Summary of the method: as §1
# [14] = target: Gal(a1-3)GalNAc
# Summary of the method: as §1
# [15] = target: Gal(a1-3)[Gal(a1-4)]Gal(b1-4)GlcNAc
# Summary of the method: as §1
# [16] = target: Gal(a1-4)Gal(b1-4)Glc
# Summary of the method: as §1
# [17] = target: Gal(a1-4)Gal(b1-4)GlcNAc
# Summary of the method: as §1
# [18] = target: Gal(a1-4)GlcNAc
# Summary of the method: as §1
# [19] = target: Gal(a1-6)Glc
# Summary of the method: as §1
# [20] = target: Gal(b1-2)Gal
# Summary of the method: as §1
# [21] = target: Gal(b1-3)Gal
# Summary of the method: as §1
# [22] = target: Gal(b1-3)GalNAc
# Summary of the method: as §1
# [23] = target: Gal(b1-3)GalNAc(b1-3)Gal(a1-4)Gal(b1-4)Glc
# Summary of the method: as §1
# [24] = target: Gal(b1-3)GalNAc(b1-4)Gal(b1-4)Glc
# Summary of the method: as §1
# [25] = target: Gal(b1-3)GalNAc(b1-4)[Neu5Ac(a2-3)]Gal(b1-4)Glc
# Summary of the method: as §1
# [26] = target: Gal(b1-3)GlcNAc
# Summary of the method: as §1
# [27] = target: Gal(b1-3)GlcNAc(b1-3)Gal(b1-4)Glc
# Summary of the method: as §1
# [28] = target: Gal(b1-3)GlcNAc(b1-3)Gal(b1-4)GlcNAc
# Summary of the method: as §1
# [29] = target: Gal(b1-3)[Fuc(a1-4)]GlcNAc
# Summary of the method: as §1
# [30] = target: Gal(b1-3)[Fuc(a1-4)]GlcNAc(b1-3)Gal(b1-4)GlcNAc
# Summary of the method: as §1
# [31] = target: Gal(b1-3)[Fuc(a1-4)]GlcNAc(b1-3)Gal(b1-4)[Fuc(a1-3)]GlcNAc
# Summary of the method: as §1
# [32] = target: Gal(b1-3)[GlcNAc(b1-6)]GalNAc
# Summary of the method: as §1
# [33] = target: Gal(b1-3)[Neu5Ac(a2-6)]GalNAc
# Summary of the method: as §1
# [34] = target: Gal(b1-3)[Neu5Ac(a2-6)]GlcNAc(b1-6)Gal(b1-4)Glc
# Summary of the method: as §1
# [35] = target: Gal(b1-3)[Neu5Ac(b2-6)]GalNAc
# Summary of the method: as §1
# [36] = target: Gal(b1-4)GalNAc(a1-3)[Fuc(a1-2)]Gal(b1-4)GlcNAc
# Summary of the method: as §1
# [37] = target: Gal(b1-4)GalNAc(b1-3)[Fuc(a1-2)]Gal(b1-4)GlcNAc
# Summary of the method: as §1
# [38] = target: Gal(b1-4)Glc
# Summary of the method: as §1
# [39] = target: Gal(b1-4)Glc6S
# Summary of the method: as §1
# [40] = target: Gal(b1-4)GlcNAc
# Summary of the method: as §1
# [41] = target: Gal(b1-4)GlcNAc(b1-2)Man(a1-3)[Gal(b1-4)GlcNAc(b1-2)Man(a1-6)]Man(b1-4)GlcNAc(b1-4)GlcNAc
# Summary of the method: as §1
# [42] = target: Gal(b1-4)GlcNAc(b1-3)Gal(b1-4)Glc
# Summary of the method: as §1
# [43] = target: Gal(b1-4)GlcNAc(b1-3)Gal(b1-4)GlcNAc
# Summary of the method: as §1
# [44] = target: Gal(b1-4)GlcNAc(b1-3)Gal(b1-4)GlcNAc(b1-3)Gal(b1-4)GlcNAc
# Summary of the method: as §1
# [45] = target: Gal(b1-4)GlcNAc(b1-3)Gal(b1-4)[Fuc(a1-3)]GlcNAc(b1-3)Gal(b1-4)[Fuc(a1-3)]GlcNAc
# Summary of the method: as §1
# [46] = target: Gal(b1-4)GlcNAc(b1-3)GalNAc
# Summary of the method: as §1
# [47] = target: Gal(b1-4)GlcNAc(b1-3)[Gal(b1-4)GlcNAc(b1-6)]GalNAc
# Summary of the method: as §1
# [48] = target: Gal(b1-4)GlcNAc(b1-6)Gal(b1-4)GlcNAc(b1-6)GalNAc
# Summary of the method: as §1
# [49] = target: Gal(b1-4)GlcNAc(b1-6)GalNAc
# Summary of the method: as §1
# [50] = target: Gal(b1-4)GlcNAc(b1-6)[Gal(b1-3)]GalNAc
# Summary of the method: as §1
# [51] = target: Gal3S(b1-3)GalNAc
# Summary of the method: as §1
# [52] = target: Gal3S(b1-3)GlcNAc
# Summary of the method: as §1
# [53] = target: Gal3S(b1-3)[Fuc(a1-4)]GlcNAc
# Summary of the method: as §1
# [54] = target: Gal3S(b1-4)Glc
# Summary of the method: as §1
# [55] = target: Gal3S(b1-4)Glc6S
# Summary of the method: as §1
# [56] = target: Gal3S(b1-4)GlcNAc
# Summary of the method: as §1
# [57] = target: Gal3S(b1-4)GlcNAc6S
# Summary of the method: as §1
# [58] = target: Gal3S6S(b1-4)GlcNAc
# Summary of the method: as §1
# [59] = target: Gal3S6S(b1-4)GlcNAc6S
# Summary of the method: as §1
# [60] = target: Gal4S(b1-4)GlcNAc
# Summary of the method: as §1
# [61] = target: Gal4S6S(b1-4)GlcNAc
# Summary of the method: as §1
# [62] = target: Gal6S(b1-4)Glc
# Summary of the method: as §1
# [63] = target: Gal6S(b1-4)Glc6S
# Summary of the method: as §1
# [64] = target: Gal6S(b1-4)GlcNAc
# Summary of the method: as §1
# [65] = target: GalNAc(a1-3)Gal
# Summary of the method: as §1
# [66] = target: GalNAc(a1-3)GalNAc
# Summary of the method: as §1
# [67] = target: GalNAc(b1-3)Gal(a1-4)Gal(b1-4)GlcNAc
# Summary of the method: as §1
# [68] = target: GalNAc(b1-3)GalNAc
# Summary of the method: as §1
# [69] = target: GalNAc(b1-4)GlcNAc
# Summary of the method: as §1
# [70] = target: Glc(a1-4)Glc
# Summary of the method: as §1
# [71] = target: Glc(a1-6)Glc(a1-6)Glc
# Summary of the method: as §1
# [72] = target: Glc(b1-4)Glc
# Summary of the method: as §1
# [73] = target: Glc(b1-6)Glc
# Summary of the method: as §1
# [74] = target: GlcA(b1-3)Gal
# Summary of the method: as §1
# [75] = target: GlcA(b1-6)Gal
# Summary of the method: as §1
binder,measurement,setting,value
"F17dG (Escherichia coli), Q47199 (protein) MTNFYKVFLAVFILVCCNISQAAVSFIGSTENDVGPSPGSYSRTHAMDNLPFVYNTGNNIGYQNANVWRISKGFCVGLDGKVDLPVVGSLDGQSIYGLTEEVGLLIWMGDTNYSRGTAMSGNSWENVFSGWCVGANTASTQGLSVRVTPVILKRNSSARYSVQKTSIGSIRMRPYNGSSAGSVQTTVNFSLNPFTLNDTVTSCRLLTPSAVNVSLAAISAGQLPSSGDEVVAGTTSLKLQCDAGVTVWATLTDATTPSNRSDILTLTGASTATGVGLRIYKNTDSTPLKFGPDSPVKGNENQWQLSTGTETSPSVRLYVKYVNTGEGINPGTVNGISTFTFSYQ",glycan array binding signal (z-score),[1],-0.321
same,glycan array binding signal (z-score),[2],-0.112
same,glycan array binding signal (z-score),[3],-0.134
same,glycan array binding signal (z-score),[4],-0.365
same,glycan array binding signal (z-score),[5],-0.362
same,glycan array binding signal (z-score),[6],-0.261
same,glycan array binding signal (z-score),[7],-0.225
same,glycan array binding signal (z-score),[8],-0.293
same,glycan array binding signal (z-score),[9],-0.326
same,glycan array binding signal (z-score),[10],-0.312
same,glycan array binding signal (z-score),[11],-0.414
same,glycan array binding signal (z-score),[12],-0.189
same,glycan array binding signal (z-score),[13],-0.405
same,glycan array binding signal (z-score),[14],-0.181
same,glycan array binding signal (z-score),[15],-0.399
same,glycan array binding signal (z-score),[16],0.45
same,glycan array binding signal (z-score),[17],-0.362
same,glycan array binding signal (z-score),[18],-0.162
same,glycan array binding signal (z-score),[19],-0.237
same,glycan array binding signal (z-score),[20],-0.316
same,glycan array binding signal (z-score),[21],-0.308
same,glycan array binding signal (z-score),[22],-0.155
same,glycan array binding signal (z-score),[23],-0.06
same,glycan array binding signal (z-score),[24],-0.17
same,glycan array binding signal (z-score),[25],-0.232
same,glycan array binding signal (z-score),[26],-0.154
same,glycan array binding signal (z-score),[27],-0.334
same,glycan array binding signal (z-score),[28],-0.386
same,glycan array binding signal (z-score),[29],-0.225
same,glycan array binding signal (z-score),[30],-0.355
same,glycan array binding signal (z-score),[31],-0.374
same,glycan array binding signal (z-score),[32],0.643
same,glycan array binding signal (z-score),[33],-0.194
same,glycan array binding signal (z-score),[34],-0.262
same,glycan array binding signal (z-score),[35],-0.256
same,glycan array binding signal (z-score),[36],-0.326
same,glycan array binding signal (z-score),[37],0.215
same,glycan array binding signal (z-score),[38],-0.307
same,glycan array binding signal (z-score),[39],-0.312
same,glycan array binding signal (z-score),[40],-0.338
same,glycan array binding signal (z-score),[41],-0.364
same,glycan array binding signal (z-score),[42],-0.174
same,glycan array binding signal (z-score),[43],-0.287
same,glycan array binding signal (z-score),[44],0.028
same,glycan array binding signal (z-score),[45],-0.317
same,glycan array binding signal (z-score),[46],-0.291
same,glycan array binding signal (z-score),[47],-0.336
same,glycan array binding signal (z-score),[48],-0.329
same,glycan array binding signal (z-score),[49],-0.359
same,glycan array binding signal (z-score),[50],-0.253
same,glycan array binding signal (z-score),[51],-0.279
same,glycan array binding signal (z-score),[52],-0.335
same,glycan array binding signal (z-score),[53],-0.308
same,glycan array binding signal (z-score),[54],-0.073
same,glycan array binding signal (z-score),[55],-0.278
same,glycan array binding signal (z-score),[56],-0.33
same,glycan array binding signal (z-score),[57],-0.11
same,glycan array binding signal (z-score),[58],-0.258
same,glycan array binding signal (z-score),[59],0.325
same,glycan array binding signal (z-score),[60],-0.315
same,glycan array binding signal (z-score),[61],-0.071
same,glycan array binding signal (z-score),[62],-0.327
same,glycan array binding signal (z-score),[63],-0.217
same,glycan array binding signal (z-score),[64],-0.255
same,glycan array binding signal (z-score),[65],-0.339
same,glycan array binding signal (z-score),[66],-0.237
same,glycan array binding signal (z-score),[67],-0.353
same,glycan array binding signal (z-score),[68],3.1
same,glycan array binding signal (z-score),[69],-0.336
same,glycan array binding signal (z-score),[70],-0.331
same,glycan array binding signal (z-score),[71],-0.359
same,glycan array binding signal (z-score),[72],-0.357
same,glycan array binding signal (z-score),[73],-0.098
same,glycan array binding signal (z-score),[74],-0.38
same,glycan array binding signal (z-score),[75],-0.373
